The values that follow come from the supplement of paper PMC11417369.

± gives the standard deviation of the averaged measurements. Some of the results follow.

For this experiment, the system named is PfAP2-LT AP2 domain (GST-tagged). Put plainly: gcPBM binding intensity (ln(normalized median fluorescence intensity)); higher = stronger DNA binding. The method, boiled down:
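An Agilent 4 × 180k array of primer-extended double-stranded 36-bp intergenic genomic probes, with negative controls, was incubated for 1 h with GST-tagged P. falciparum DNA-binding domains expressed in E. coli. Alexa488 anti-GST antibody detected bound protein, scanned at 488 nm. Binding intensity is the highest Masliner-normalised natural-log median intensity across replicate spots of either probe orientation.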
As to “TTTAAAACCCTAAAAAAAAAAAAAAAAAAAAAAAAA [CACACA_negctrl_site1212]”, the “gcPBM binding intensity (ln)” value was 8.25 ± 0.28.

Regarding “ATGCATAAAAGAAATACACACATAAATATGTAAATA [CACACA_site7087]”, the “gcPBM binding intensity (ln)” value was 9.38 ± 0.38.

Consider AGGTATATATTACAAGTGCACTGTAAAATTAAAATT, for which the “gcPBM binding intensity (ln)” value amounted to 8.93 ± 0.43.

Turning to “TAATAAACAAATTCCAAAATAAATTAAAAGGAAAAT [CACACA_negctrl_site1404]”, the “gcPBM binding intensity (ln)” value is 8.68 ± 0.49.

“TTTTATCTCATTCATCAAAATCACCGGAATCATATA [CACACA_negctrl_site357]”: the “gcPBM binding intensity (ln)” value came out at 8.42 ± 0.37.

For the sequence “ATTTTATCATAATAAAGTACAAAGATGCAAATAATA [XGTACX_site2270]”, the “gcPBM binding intensity (ln)” value was 8.8 ± 0.43.

In the case of “ATTTATTTATATTTAGTGCAATACTATTTTTAAATA [GTGCAC_site9886]”, the “gcPBM binding intensity (ln)” value was found to be 8.54 ± 0.43.

For “ATAAAATAAATGAAAAATGTAAAATGAGAAAAAAAT [CACACA_negctrl_site1026]”, the “gcPBM binding intensity (ln)” value was determined as 8.97 ± 0.47.

On to “TATATATATATATGGGTGCATTTTTTTGTCCATGTA [GTGCAC_site9868]”, for which the “gcPBM binding intensity (ln)” value is 9.63 ± 0.23.

Turning to “TATGCTATAATACTCTGTACTTACTAATTTAATAAT [XGTACX_site5926]”, the “gcPBM binding intensity (ln)” value is 8.7 ± 0.41.

In the case of “TACATATTTTTTATATGTACATATTTTTTATGTGTA [XGTACX_site442]”, the “gcPBM binding intensity (ln)” value is 8.9 ± 0.45.

Consider “ATATACACATAAAGTAGTACACCTGAAATTTTTTTT [XGTACX_site2951]”, for which the “gcPBM binding intensity (ln)” value amounted to 8.86 ± 0.37.

On to “AATTCATTTAAAAGTTGTACAAGCTTAATAAAAAAA [XGTACX_site6073]”, for which the “gcPBM binding intensity (ln)” value was found to be 8.61 ± 0.45.

In the case of “GAGGATATATTATATGTACACACATATATAACGGAT [CACACA_site8361]”, the “gcPBM binding intensity (ln)” value came to 9.26 ± 0.32.

Turning to “GTATTTTTTTTAATATGTACATATAAAATATTTTAT [XGTACX_site8329]”, the “gcPBM binding intensity (ln)” value stood at 8.84 ± 0.38.

On to “AATACAATTTATAACACACACACAATAATACATATA [CACACA_site1252]”, for which the “gcPBM binding intensity (ln)” value came out at 9.77 ± 0.28.

As for “ATATAAGTTTATATATGTACATATATATATTATATA [XGTACX_site2068]”, the “gcPBM binding intensity (ln)” value was 8.66 ± 0.39.

As to “AATATATGAATTAGAAGTACAAATAAATATTTATTT [XGTACX_site2062]”, the “gcPBM binding intensity (ln)” value was 8.66 ± 0.38.

For the sequence “TTAATCATAAAAGTCACACATAATAAGAAAAAGCTT [CACACA_site4616]”, the “gcPBM binding intensity (ln)” value amounted to 8.78 ± 0.37.

As to “AATTAAAAATATAAATGTACATATATGTAAAACTTT [XGTACX_site123]”, the “gcPBM binding intensity (ln)” value turned out to be 9.01 ± 0.38.

In the case of “CCCATGCATTTTTGCACACACATATATATATAAATA [CACACA_site1430]”, the “gcPBM binding intensity (ln)” value worked out at 9.49 ± 0.33.

As for “AAGAGTTTGAAGTTTGCACACTACGTTAAAAATAAA [CACACA_site3939]”, the “gcPBM binding intensity (ln)” value turned out to be 8.72 ± 0.59.

For the sequence “AATATAATGTAATATACACACATATATTTCTCTTTT [CACACA_site5451]”, the “gcPBM binding intensity (ln)” value was found to be 8.95 ± 0.45.

For the sequence “CCACATTTTACAGACACACACAATTTATATTACGGT [CACACA_site1894]”, the “gcPBM binding intensity (ln)” value is 9.3 ± 0.34.

Take “AAAAATTTATTTTTAGGTACACAATTGAATTATTTA [XGTACX_site7008]”: the “gcPBM binding intensity (ln)” value was 8.34 ± 0.47.

As for “TGTAGTCTGGAGAAAAGTACATAGTATCTGATAACC [XGTACX_site2018]”, the “gcPBM binding intensity (ln)” value was found to be 8.77 ± 0.5.

“GTGCATATATGATATACACACAATATAATAGTATGT [CACACA_site2460]”: the “gcPBM binding intensity (ln)” value worked out at 9.17 ± 0.4.

As for “CCTCCCATTTTTACACGTACACATTTAAAATAGACT [XGTACX_site5640]”, the “gcPBM binding intensity (ln)” value turned out to be 8.95 ± 0.21.

As for “TGAAGAAAATATTAATGTACATATTATATATATATA [XGTACX_site5497]”, the “gcPBM binding intensity (ln)” value was found to be 8.76 ± 0.3.

On to “ATATATTTAAATAAAAGTACGTAAAGGTATATTTAA [XGTACX_site8088]”, for which the “gcPBM binding intensity (ln)” value was 8.88 ± 0.44.

On to “ATAATAAAAAAAAAATGTACATAAATCTAAAATCCT [XGTACX_site5823]”, for which the “gcPBM binding intensity (ln)” value stood at 8.88 ± 0.54.

Turning to “ATTATAAATATAAATATAAATATATATTGTTCCGCA [TGCATGCA_negctrl_site470]”, the “gcPBM binding intensity (ln)” value is 8.54 ± 0.4.

On to “TTTATCCTTCTTTTGAGTACTCAAAGAGACCTATAA [XGTACX_site8050]”, for which the “gcPBM binding intensity (ln)” value was 8.53 ± 0.67.

As to “AAAAAAAACAGACACACACACAAATATTTATATATC [CACACA_site6342]”, the “gcPBM binding intensity (ln)” value worked out at 9.74 ± 0.25.

On to “TATATATATATATATATATATATTTTTATTATATAT [XGTACX_negctrl_site89]”, for which the “gcPBM binding intensity (ln)” value turned out to be 9.47 ± 0.028.

Consider “TTGCACTCGTAAAAAGCACACATATAAAAACATTTA [CACACA_site7997]”, for which the “gcPBM binding intensity (ln)” value is 8.78 ± 0.42.

Turning to “TTAAAAATGTTATAATGTACATATAATATTTTATGA [XGTACX_site5954]”, the “gcPBM binding intensity (ln)” value amounted to 8.43 ± 0.35.

As to “AAAACACATACTATATGTACATATAATAATTTATAT [XGTACX_site4525]”, the “gcPBM binding intensity (ln)” value was 8.95 ± 0.38.

Take “TTCTGTATATAGTGTGCACACAATTAAAAAAAAAAA [CACACA_site8400]”: the “gcPBM binding intensity (ln)” value amounted to 9.13 ± 0.43.

In the case of “AAGAAAAAAAAAAAAAAAAAAAAAAAAAAAAAAAAA [TGCATGCA_negctrl_site263]”, the “gcPBM binding intensity (ln)” value was determined as 7.96 ± 0.23.

Regarding “ATTATAAATAAAATATGTACATATGTATAAATACAT [XGTACX_site4002]”, the “gcPBM binding intensity (ln)” value was determined as 8.82 ± 0.38.

“AAATATATTTTTTTTTGTACTCAAAAAGAAAAAAAA [XGTACX_site8540]”: the “gcPBM binding intensity (ln)” value was 8.13 ± 0.53.

“ATAAAATTATATACTCGTACACAAAAAAAAAAAATA [XGTACX_site6035]”: the “gcPBM binding intensity (ln)” value is 8.77 ± 0.47.

Consider “AAAAATTGAATGATGTGTACTTAAAAGAATATAGAA [XGTACX_site6588]”, for which the “gcPBM binding intensity (ln)” value was 8.7 ± 0.54.
